# Test results published in PMC4336329 (PLoS ONE, 2015).
# Among all 310,000 compounds or so, about 2,200 (0.71%) showed an effect of 50% or more. The effect is printed as a negative number. The list shows a part of the results.
# Target: human ether-à-go-go-related gene (hERG) potassium channel (human, UniProt Q12809)
# Assay: primary screen, population patch clamp on CHO cells stably expressing hERG
# Chain of human ether-à-go-go-related gene (hERG) potassium channel (Q12809 whole entry, looked up): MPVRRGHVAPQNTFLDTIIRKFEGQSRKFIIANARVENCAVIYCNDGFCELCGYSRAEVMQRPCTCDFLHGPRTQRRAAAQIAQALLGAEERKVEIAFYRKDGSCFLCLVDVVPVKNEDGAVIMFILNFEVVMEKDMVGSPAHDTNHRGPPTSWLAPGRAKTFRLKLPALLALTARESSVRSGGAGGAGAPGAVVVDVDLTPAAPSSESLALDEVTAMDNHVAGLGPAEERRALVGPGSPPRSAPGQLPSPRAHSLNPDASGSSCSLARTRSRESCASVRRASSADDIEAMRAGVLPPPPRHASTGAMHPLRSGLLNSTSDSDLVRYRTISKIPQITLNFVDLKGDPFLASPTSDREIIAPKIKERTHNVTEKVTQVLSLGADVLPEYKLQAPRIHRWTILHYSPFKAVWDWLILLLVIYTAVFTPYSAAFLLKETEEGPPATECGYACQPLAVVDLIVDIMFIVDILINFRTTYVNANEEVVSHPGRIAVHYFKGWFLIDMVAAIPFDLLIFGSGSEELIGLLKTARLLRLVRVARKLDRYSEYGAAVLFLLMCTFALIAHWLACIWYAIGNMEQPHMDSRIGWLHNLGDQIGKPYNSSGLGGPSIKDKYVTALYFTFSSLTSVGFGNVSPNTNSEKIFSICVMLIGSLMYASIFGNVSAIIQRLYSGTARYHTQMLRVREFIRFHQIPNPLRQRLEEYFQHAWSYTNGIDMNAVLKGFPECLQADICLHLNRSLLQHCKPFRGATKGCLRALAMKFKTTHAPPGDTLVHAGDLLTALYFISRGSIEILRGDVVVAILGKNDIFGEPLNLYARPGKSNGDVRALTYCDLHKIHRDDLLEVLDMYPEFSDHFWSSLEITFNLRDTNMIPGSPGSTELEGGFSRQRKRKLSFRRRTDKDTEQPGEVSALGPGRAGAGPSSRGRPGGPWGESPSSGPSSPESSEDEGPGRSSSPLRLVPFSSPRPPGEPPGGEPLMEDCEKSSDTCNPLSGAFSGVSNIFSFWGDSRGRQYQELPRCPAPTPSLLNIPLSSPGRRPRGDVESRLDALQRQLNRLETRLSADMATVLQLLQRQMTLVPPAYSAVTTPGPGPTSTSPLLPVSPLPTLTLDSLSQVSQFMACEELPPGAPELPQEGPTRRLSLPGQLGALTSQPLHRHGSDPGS
row,Structure (SMILES),"hERG current change (%, negative = inhibition) at 1uM [%]"
1,COc1ccc(NC(=O)CC2C(=O)N(C)C(=S)N2Cc2ccco2)cc1 (stereo not shown),8.81
2,COC(=O)C1=C(C)NC(=O)C1(NS(=O)(=O)c1ccc(NC(C)=O)cc1)C(F)(F)F (stereo not shown),8.28
3,Nc1nonc1-c1nc2ccccc2n1CCC(=O)O,8.16
4,COC(=O)c1ccc(NC(=O)C2C3C=CC(C3)C2C(=O)O)cc1 (stereo not shown),4.75
5,CCc1ccc(NC(=S)NC(=O)CC(C)C)cc1,16.8
6,CC1CCCC(NC(=O)CNCc2ccccc2F)C1C.O=C(O)C(=O)O (stereo not shown),1.63
7,Cc1oc2c(CN3CCCC(C)C3)c(O)ccc2c(=O)c1-c1ccccc1 (stereo not shown),3.89
8,Cc1cc(C(=O)N/N=C/c2cccc([N+](=O)[O-])c2O)n[nH]1,1.97
9,Cc1cccc(C(=O)NCC(=O)N2CCN(c3ccc(Cl)cc3)CC2)c1,4.04
10,C=CCNC(=O)C1CCN(c2cc(C)nc(-c3ccccc3)n2)CC1,-12.2
11,CC(C)c1ccc(NC(=O)C2CCN(C(=O)[C@@H]3Cc4ccccc4CN3)CC2)cc1,-40.1
12,Cc1c(Cl)cccc1NC(=O)C1CCCCC1,9.6
13,O=C(CCc1n[nH]c(=O)[nH]c1=O)N1CCOCC1,9.76
14,COC(=O)c1ccc(NC(=O)c2ccc(F)cc2)o1,9.39
15,CC(C)C[C@H](NC(=O)[C@@H]1O[C@H]1C(=O)O)C(=O)NCCCCN=C(N)N,9.26
16,COC(=O)c1[nH]c2ccccc2c1NC(=O)C(C)N1CCOCC1 (stereo not shown),9.91
17,Cc1ccc(N2CC(C(=O)N3CCC(C(=O)Nc4ccc(Br)cc4)CC3)CC2=O)cc1 (stereo not shown),-3.6
18,COc1cc(C(=O)OCC(=O)c2c(N)n(C)c(=O)n(C)c2=O)ccc1OCCC(C)C,14.4
19,O=C1c2cccnc2C(=O)N1Cc1ccc(S(=O)(=O)N2CCN(c3ccccc3)CC2)cc1,14.8
20,Br.CCCn1c(=N)n(CC(=O)c2ccc(Cl)c(Cl)c2)c2ccccc21,-17.7
21,Cc1ccc(NC(=O)Nc2cccc([N+](=O)[O-])c2)cc1F,7.26
22,Nc1nnnn1/N=C\c1ccc(Cl)c([N+](=O)[O-])c1,9.04
23,COc1ccc(/C=C/C(=O)Nc2nc(C)c(C(=O)N(C)C)s2)cc1OC,8.77

row,Structure (SMILES),"hERG current change (%, negative = inhibition) at 1uM [%]"
1,O=C(Cn1c(=O)c2cccn2c2cccnc21)N1CCN(c2ccc(Cl)cc2)CC1,-7.62
2,COc1ccc2nc3ccccc3nc2c1NC(=O)c1ccc(Cl)cc1Cl,17.5
3,Cc1ccc(NC(=O)c2cnc(N3CCN(c4ccccn4)CC3)c3ccccc23)c(Br)c1,18.2
4,O=C(NNc1cc(Cl)ccc1Cl)c1cccs1,23.1
5,CCc1cc2c(SCC(=O)Nc3ncc(Cl)c(C)c3Cl)ncnc2s1,6.51
6,C=CCN(C(=O)c1csnn1)C(C(=O)NC1CCCCC1)c1ccccc1 (stereo not shown),7.13
7,COc1cccc(OCC(O)CN2CC(C)CC(C)C2)c1.Cl (stereo not shown),-1.59
8,COc1ccc(S(=O)(=O)Nc2cc3c(C(C)=O)c(C)oc3c3ccccc23)cc1,0.727
9,Cc1ccc(NC(=O)Cn2cc(C(F)(F)F)cc(Cl)c2=O)cc1S(=O)(=O)N1CCCCC1,-20.6
10,O=C(COC(=O)c1ccc([N+](=O)[O-])s1)NC(c1ccccc1)c1ccccc1,12.4
11,Cc1nn(CCO)c2ncc(C(=O)c3cc(F)ccc3O)cc12,17.3
12,CC(C)CN(CC(C)C)C(=O)CN1C(=O)NC2(CCc3ccccc3C2)C1=O (stereo not shown),10.4
13,CCCc1nn(CCc2ccccn2)c(N)c1CC,5.78
14,COCCCNC(=O)C1Cc2cc(S(=O)(=O)N3CCCC3)ccc2N1C(C)=O (stereo not shown),8.15
15,CCC(C)n1c(SC(C)C#N)nc2ccccc2c1=O (stereo not shown),8.97
16,CCCCC(CC)CNC(=O)c1ccc2c(c1)OCO2 (stereo not shown),3.31
17,Cc1cccc(N2CCN(C(=O)n3ccnc3)CC2)c1C,-3.02
18,COc1cc(Br)c(C(C)NC(=O)c2ccccc2)cc1OC (stereo not shown),6.56
19,O=c1cc(NCc2ccccc2)[nH]c(=O)[nH]1,13.8
20,CN(Cc1cnccn1)C(=O)CC1C(=O)NCCN1Cc1ccc(F)cc1Cl (stereo not shown),14.7
21,COc1ccc2[nH]c3nc(SCC(=O)NNC(=O)c4ccc(OC)c(OC)c4)nnc3c2c1,10.3
22,OCC[C@@H]1C[C@@H](O)[C@H](O)[C@]2(Cc3ccccc3CO2)O1,15.3
23,O=C(CN1CCN(c2ccc(F)cc2)CC1)Nc1cc(C(F)(F)F)ccc1Cl,0.892

row,Structure (SMILES),"hERG current change (%, negative = inhibition) at 1uM [%]"
1,COc1ccc(CNC(=O)C2CCCN(S(=O)(=O)c3c(C)nn(C)c3C)C2)cc1 (stereo not shown),15.5
2,CCn1cnc2cc(NCc3ccc(N(C)C)cc3)ccc21,17.2
3,COC(=O)C1(S(=O)(=O)c2ccc(C)cc2)CCOCC1,-2.88
4,Cc1onc(-c2ccccc2Cl)c1C(=O)c1ccccc1,5.83
5,Oc1ccc(-c2n[nH]c(=S)n2Cc2ccco2)cc1,2.33
6,O=c1oc2c(O)c(O)cc3c(=O)oc4c(O)c(O)cc1c4c23,11.6
7,CC(C)CC(=O)NC(Nc1ccc([N+](=O)[O-])cc1)C(Cl)(Cl)Cl (stereo not shown),-1.21
8,O=C(Cc1cccs1)N1CCN(C(=O)C2CCCO2)CC1 (stereo not shown),11.5
9,CC(Sc1nc(N)cc(=O)[nH]1)C(=O)Nc1cccc(Cl)c1 (stereo not shown),9.37
10,CC(=O)N1CCc2cc(S(=O)(=O)N3CC(C)CC(C)C3)ccc21 (stereo not shown),15.8
11,Cc1cc(Cl)ccc1OCC(=O)N1CC(C)CC(C)C1 (stereo not shown),6.83
12,COc1cc2c(c(OC)c1OC)-c1ccc(OC)c(=O)cc1C(NC(C)=O)CC2 (stereo not shown),5.83
13,COc1ccc(OC)c(NC(=O)CCCN2C(=O)C3C4C=CC(C4)C3C2=O)c1 (stereo not shown),6.71
14,O=C(C1CCCCC1)N1CCCn2c1nc1ccccc12,10.8
15,COc1ccc(Nc2c(C)cccc2C)cc1,11.9
16,CCOC(CC(=O)NNC(=O)c1c(-c2ccccc2Cl)noc1C)OCC,16.9
17,CCOC(=O)c1nn(-c2ccccc2)c2nc(Nc3ccccc3)cc(=O)n12,5.22
18,CC(=O)N/C(=C\c1ccccc1)C(=O)NCc1ccc2c(c1)OCO2,6.11
19,CCN(CC)CCNC(=O)c1c(O)c2c([nH]c1=O)CCCC2,8.37
20,COc1ccc(C)cc1NC(=O)Cn1c(=O)oc2ccccc21,16.1
21,Cc1ncc(C[n+]2ccc(C)c(C)c2)c(N)n1.[Cl-],11.8
22,CCn1c(Cc2ccc(OC)cc2)nnc1SCC(=O)N1CCN(c2ccccc2)CC1,1.4
23,COc1cccc(C2CCCN2Cc2nc(-c3sccc3C)oc2C)c1 (stereo not shown),13.3

row,Structure (SMILES),"hERG current change (%, negative = inhibition) at 1uM [%]"
1,COc1ccc(CC(=O)NCc2n[nH]c(=S)n2-c2ccccc2OC)cc1,10.5
2,CCOC(=S)SCC(=O)Nc1nccs1,13
3,CC1CC(C)CN(C(=O)c2ccc(S(=O)(=O)N3CCCC3)cc2)C1 (stereo not shown),12.1
4,COc1cc(OC)cc(C(=O)Nc2nc(CC(=O)NCCc3ccccc3)cs2)c1,-8.22
5,O=C(O)CN1CCCCCC1=O,18.3
6,COc1ccc(CCN(C)C(=O)C2CCN(Cc3cccc(OC)c3OC)CC2)cc1OC.O=C(O)C(=O)O,0.728
7,CCOc1ccc(NC(=O)CSc2nc3c([nH]c4ccccc43)c(=O)n2C)cc1,14.5
8,COc1cccc(C(=O)c2sc(NC(C)C)nc2N)c1,5.02
9,Cc1ccc(NC(CC(=O)c2ccccc2)c2ccc(F)cc2)cc1 (stereo not shown),-2.52
10,COc1ccc(NC2CCCN(C(=O)COc3ccc(Cl)cc3C)C2)cc1OC (stereo not shown),6.12
11,Cn1c(=O)c(=O)n(C)c2cc(S(=O)(=O)CCC(=O)N3CCCCC3)ccc21,14.8
12,C=CCOc1ccc(/C=C/C(=O)OCC(=O)NC(C)c2ccc(F)cc2)cc1 (stereo not shown),9.9
13,O=C(O)C1Cc2[nH]cnc2C(c2ccccc2O)N1 (stereo not shown),11.7
14,CCc1n[nH]c2c1/C(=N\O)CC(c1ccccc1)C2 (stereo not shown),-18.4
15,O=C(O)c1cnn2c1NC(c1cccs1)CC2C(F)(F)F (stereo not shown),6.11
16,CC(C)=NOC(=O)c1c(C)noc1-c1snnc1C,13.2
17,Cc1c(Cl)cnc(NC(=O)COC(=O)CCS(=O)(=O)c2ccccc2)c1Cl,5.79
18,Cc1ccc(S(=O)(=O)NC(=O)N(C)C2CCCCC2)cc1,11.4
19,COc1ccccc1Nc1nc2c(s1)CCC2,0.431
20,CCOC(=O)c1nc2ccccc2c(=O)n1-c1ccc(C)cc1C,7.22
21,CCCCc1ccc(NC(=O)Nc2cnccn2)cc1,-2
22,CCCOc1ccc(/C=N/NC(=O)C2CCCN2S(=O)(=O)c2ccc(Cl)cc2)cc1 (stereo not shown),7.59
